In the supplement of paper PMC10441789:
The list shows a part of the results. Antibody binding of pooled human sera (four to six donors per pool; dilution not stated) to peptides of the Trypanosoma cruzi antigen TSSA on microarrays. Quantile-normalised fluorescence in arbitrary units, mean of duplicate arrays; higher = more binding. No active / inactive call. The uninfected pools are read here as the healthy donors of the same country. The strongest signals lie near the top of the scale (about 60,000).

test system: pooled sera of uninfected people, Colombia; assay: antibody binding signal (normalised fluorescence) (arbitrary fluorescence units); higher = stronger serum antibody binding to peptide
Method: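 Microarray of 15-residue peptides over residues 30-55 of Trypanosoma cruzi TSSAII, each with 1 to 10 substitutions at naturally variable positions, probed with one serum pool per country.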

| Sequence | antibody binding signal |
| --- | --- |
| GTDNKPAAGETPSPS | 177 |
| PSGKENKPATGGAPS | 319 |
| ISTPPSGTDNKPAAG | 408 |
| STPPSGKENKAATGG | 672 |
| DNKTAAGEAPSQSGA | 167 |
| DNKPAAGEAPSQSGA | 98.5 |
| PPSGKDNKTAAGEAP | 407 |
| TPPSGKENKPAAGEA | 854 |
| GTENKAATGGAPSPS | 226 |
| KENKAATGETPSPPG | 142 |
| SGKEKKAAAGGTPSQ | 120 |
| PSGTDNKTAAGEAPS | 342 |
| PPSGKENKPAAGEAP | 932 |
| DKKPAAGGTPSQPGA | 252 |
| KEKKTATGGTPSQSG | 191 |
| KDNKTATGEAPSQSG | 275 |
| KDNKAAAGETPSPSG | 173 |
| PPSGKENKTAAGETP | 876 |
| TPPSGTDKKTAAGGT | 376 |
| TDNKAATGGTPSPPG | 539 |

| Sequence | antibody binding signal |
| --- | --- |
| NKAAAGGTPSPSGAS | 489 |
| SGTDKKPATGETPSQ | 383 |
| TPPSGTDNKPATGET | 379 |
| GKEKKPATGEAPSPS | 148 |
| GKENKPAAGGAPSQS | 164 |
| SGTDKKAAAGGTPSQ | 237 |
| PSGTDKKPATGGAPS | 256 |
| STPPSGTENKTATGE | 449 |
| SGKENKAATGEAPSP | 608 |
| PSGKDNKPATGEAPS | 235 |
| SGTENKAAAGGAPSQ | 320 |
| GKENKPATGGAPSPS | 145 |
| GTDKKPATGETPSQP | 238 |
| GTEKKPAAGEAPSPS | 101 |
| KENKPAAGGAPSQPG | 104 |
| PPSGTDKKPATGGAP | 544 |
| DKKTATGGAPSPSGA | 91.1 |
| ISTPPSGKENKTATG | 580 |
| SGTDKKPATGGTPSP | 503 |
| GKEKKAAAGETPSPP | 89.2 |
